PMC3352084
Results are given in words; binding and its absence hold for the method and conditions named. In cells and extracts the contact can be indirect. Some binding calls cover weakened binding; strength is not graded here. Tags and fused reporters may be left off the sequences shown.

Chains of the proteins cited; added tags and fusions are not shown.
UniProt Q9Y7K2: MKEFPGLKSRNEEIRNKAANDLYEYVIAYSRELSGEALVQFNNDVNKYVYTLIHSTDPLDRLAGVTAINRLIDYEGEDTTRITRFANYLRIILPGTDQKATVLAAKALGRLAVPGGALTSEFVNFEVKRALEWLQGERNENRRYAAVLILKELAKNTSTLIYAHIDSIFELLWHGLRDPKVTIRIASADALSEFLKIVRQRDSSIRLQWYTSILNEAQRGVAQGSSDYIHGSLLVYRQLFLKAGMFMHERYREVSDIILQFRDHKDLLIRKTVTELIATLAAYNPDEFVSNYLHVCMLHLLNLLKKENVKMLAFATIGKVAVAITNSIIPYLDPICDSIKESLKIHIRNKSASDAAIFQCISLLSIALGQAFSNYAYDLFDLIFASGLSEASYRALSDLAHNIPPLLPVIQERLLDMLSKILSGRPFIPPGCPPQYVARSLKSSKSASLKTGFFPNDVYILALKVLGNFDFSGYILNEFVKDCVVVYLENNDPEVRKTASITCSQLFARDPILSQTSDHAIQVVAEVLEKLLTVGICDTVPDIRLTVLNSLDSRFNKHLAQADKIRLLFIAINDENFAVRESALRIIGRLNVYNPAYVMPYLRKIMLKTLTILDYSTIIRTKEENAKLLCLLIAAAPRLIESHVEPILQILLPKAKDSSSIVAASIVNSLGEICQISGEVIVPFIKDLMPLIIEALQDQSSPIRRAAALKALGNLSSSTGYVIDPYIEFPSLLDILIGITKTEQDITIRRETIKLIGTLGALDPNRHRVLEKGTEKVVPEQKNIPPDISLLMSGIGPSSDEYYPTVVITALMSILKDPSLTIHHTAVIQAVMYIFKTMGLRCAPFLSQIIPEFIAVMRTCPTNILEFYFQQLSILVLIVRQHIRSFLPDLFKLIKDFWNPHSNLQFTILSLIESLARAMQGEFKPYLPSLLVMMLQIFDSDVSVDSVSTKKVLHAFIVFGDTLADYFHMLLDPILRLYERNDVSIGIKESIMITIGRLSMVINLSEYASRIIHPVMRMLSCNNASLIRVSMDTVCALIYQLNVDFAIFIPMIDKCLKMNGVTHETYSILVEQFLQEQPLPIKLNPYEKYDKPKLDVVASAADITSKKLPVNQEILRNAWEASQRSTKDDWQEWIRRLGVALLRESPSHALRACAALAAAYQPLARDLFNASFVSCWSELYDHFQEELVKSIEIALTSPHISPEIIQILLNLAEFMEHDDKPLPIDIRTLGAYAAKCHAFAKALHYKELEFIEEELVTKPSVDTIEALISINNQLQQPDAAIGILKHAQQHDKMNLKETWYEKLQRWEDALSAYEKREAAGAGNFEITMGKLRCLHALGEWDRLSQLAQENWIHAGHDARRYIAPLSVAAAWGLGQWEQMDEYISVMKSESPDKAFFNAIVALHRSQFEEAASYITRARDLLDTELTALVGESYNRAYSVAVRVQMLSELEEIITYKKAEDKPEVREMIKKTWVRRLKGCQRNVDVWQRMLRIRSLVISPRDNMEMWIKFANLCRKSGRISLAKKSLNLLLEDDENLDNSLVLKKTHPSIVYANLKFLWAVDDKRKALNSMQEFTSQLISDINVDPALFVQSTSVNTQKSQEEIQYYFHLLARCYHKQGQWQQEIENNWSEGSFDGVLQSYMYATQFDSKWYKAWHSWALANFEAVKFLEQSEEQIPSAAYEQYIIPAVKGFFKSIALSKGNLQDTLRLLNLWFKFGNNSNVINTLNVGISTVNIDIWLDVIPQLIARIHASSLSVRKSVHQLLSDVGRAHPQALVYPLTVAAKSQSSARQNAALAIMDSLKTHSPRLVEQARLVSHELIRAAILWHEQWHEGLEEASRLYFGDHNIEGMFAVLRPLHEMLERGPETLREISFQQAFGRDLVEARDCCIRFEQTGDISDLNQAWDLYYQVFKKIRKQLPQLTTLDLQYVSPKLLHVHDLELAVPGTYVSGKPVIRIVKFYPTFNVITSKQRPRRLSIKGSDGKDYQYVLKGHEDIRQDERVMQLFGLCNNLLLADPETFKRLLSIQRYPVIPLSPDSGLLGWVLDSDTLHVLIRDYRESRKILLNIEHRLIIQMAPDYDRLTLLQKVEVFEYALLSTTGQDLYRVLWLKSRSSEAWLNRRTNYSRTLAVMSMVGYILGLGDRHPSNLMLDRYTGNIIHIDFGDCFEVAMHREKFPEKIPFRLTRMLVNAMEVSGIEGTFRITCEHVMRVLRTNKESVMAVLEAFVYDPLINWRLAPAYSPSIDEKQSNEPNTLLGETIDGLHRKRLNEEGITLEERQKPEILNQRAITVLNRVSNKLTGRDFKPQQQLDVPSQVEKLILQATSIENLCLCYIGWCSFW

B1: GFP-tagged Mip1 (TORC1 regulatory subunit, Raptor homologue) (protein, UniProt P87141 1-1313)
chain: MNDRISEVSGSSRARRSVLSYGTTETGSDRYTENSNIATENGVDTASSMIDGIQSGFPQPRHGFEEEYNNAEYINMLEQVFYMYYTDKRHRGVISKKNAEPTETIHDWRMRERLKTVSAALLVCLNIGVDPPDVIKPNPAAKYECWIDPFSLPASKALEAIGKNLQQQYETLSMRTRYRHYLDPAIEEVKKLCIGQRRNAKEERILFHYNGHGVPMPTASGEIWVFNKNYTQYIPVSLYDLQSWLGAPCIYVYDCSAAGNIIVNFNRFAEQRDKEALRIAKQNPNVLAMPSHTSCIQLAACGPKETLPMNPDLPADLFTSCLTSPIEISVRWYVLQNPFPNKLNLNMLLKIPGRLQDRRTPLGELNWIFTAITDTIAWNVFPKHLFRRLFRQDLMVAALFRNFLLAERIMLVHSCHPQSSPELPPTHDHPMWNSWDLAIDNCLSQLPDMLDAESKGIAYEYKHSTFFSEQLTAFEVWLSQGLISRKPPDQLPLVLQVLLSQVHRLRALILLSKFLDLGVWAVDLALSIGIFPYVLKLLQSPAIELKPVLVFIWARILAVDDSCQADLLKDNGYGYFVQILNPNSSIFPSSNISEHRAMCAFILSVFCRGFPQGQLACLNPQVLSHCLSHLNSPDSLLRQWACLCISQLWENYSEAKWSGTRDNAHVKLAEIIVDSVPEVRASVLTAFTTFLGFPEKTEEVVAVETYIAIAALAALSDASPLVRHELVIFLSHFVVNYKKQLMVVAYESSLADILEKKNHNSISASTIYETVWQAVLVLAADPSIEISLAAEAIINYVYQSMLNSELRESFLAFLLQHLPALHKASLSKDTDTNSVTSDPKPHPFVPSVSENKILNRSFSLTRSLKGLALSLAGSDRASELLSLNGENKPAESNLNHLTSAKVPGPPAFNELEYQSELDMPLTSYLFDWSRKYFTEPQMRPNEDDEPGSICYNQRLWRRNRNEKLIYRTRPLAEYSTNGRWNQQLMTFNNTIAPRKLMFHQFEDQLITLGDKDIIQVWDWRRNRCLNSFKTSASATTNVTDMQLLNEDDVALLMTGSSDGTIKLYRDYENEKVELVTSWNSLSDLVFGDRNASLLMSWQQNCGHLLVAGDVRVIRIWDASKEICYANLPVRSSNSITSLTSDLVGCNIIVAGFSDGVLRVYDKRLPARDSLTDVWKEHSSEIVNVEMQSSGMRELISASSDGEVKLWDIRMNHSLQTFSTDNSGLTSLTVHSHAPVYATGSSNQSIKIWDTLGQNINTFRENPRFLNQPKPSSLMCLKFHPHHLLLACGDNTDSRVNLYSCTKNEIHTDSPNEF
B2: GFP-tagged Tco89 (TORC1 regulatory subunit) (protein, UniProt O74428 1-451)
chain: MERPSLSRRTSSSTVSTDGEGVYSRSTKERKRNFIVNSRLKRGGGHVRVNRSGRLGSVTMRPSALTRAHSQNPNSSLVNNSSAVSHLTKQRSLNDLHELNGPKHVAKNGLIPLTQRKPNCVWDDAPVDNDSTAGNLDSDSALPTPSVTTNEAADSSRASSPVTRVVAVHDNKKKIINSNISNAPPFNNTDVQASARPPAAGQDDSAADASTTKSSPVHNEVMAEPLPHSNNREVTQATNQPKWQIHSGSDIASEPPTLSRGNSLSLLANRKVPSTNVKKSQAELYDLGSSTSRTQQKLLIQRASSKFDIVEDDMDTNPSKRFSNPHTKHIMDLVRTQYRNVLRTRELIPEFLEKIRSSYSNNQNFDSQNAFNTSAAGTAGTREETISNGQNGIVASAETSKKDDGVQSASLNASMSARSHARQRSIHVPKTRKDTDYESIHQKLLQLWSQG
B3: GFP-tagged Ste20 (TORC2 regulatory subunit, Rictor homologue) (protein, UniProt Q09743 1-1309)
chain: MKPVRRGQTDTALDISSHAKTNGDFIKKMNTTDSKRLKLLEDLKGKLEVECKIRDGAETLLQVFDTNFKKETKERKEMLKKKCTDELESSKKKIEELVSSIESFQGENGEAKTGSTSLTRSASATVSRKSSLQEKYSTRFSYKAGCSDSCSVTVSGTGELIGPTRNAHSNLTPTVIQRIDFENVNEKNNSSSEDTQPNGKRPSSLQSNFSQFPLNPWLDNIYKACLEGSMKDVIDSSNNLCEYLHEHSDPAYAKNFSLITPTILSMLELNVSEVTASVYRLLRHLFLDATAFSCCQMLNLPWILSKSLLSGTDAYQIEREQAFRLIRTLYFLSSTEGHEDYLSGITRTIISICEHVSDVSRGIAVETLIELMIIRPKILFKANGLRVLMISLIDGSISENLAASAALALVYLLDDPESACYVNLPYDIGILLSPFTSSSSRDTFNSSEEQSEQAAKAMKSSAKVASVLLNSWSGLLALSTNDFQALRSIVDTLRVPSFAPRSDVIDLFFLIFQVEYSSWSESFLAGKRLTVVKNQAVSNDDNINMVNIPDGSNKKYMSLRQHFTAVLLFIFLELGLVESIVCMIRASDDPSASRKATYLLGEVLRLSDELLPIHLGAKIQSLPSLFNMASQFTAEDRFVATSVLQSIESLNRVKFHSATQPFSQTTSLLFKEQKTDGSFRGQRQVEHVKLKMGMQIDDSHFRSMLAETNVLATKNYQKWRWDTLVQIMEGPLLSPKRIDETLRTTKFMRRLLAFYKPFSNRFSSIQNTKPNQKFIKVGCLVFRTLLANPEGVKYLSESKVIKQIAESLSQIDGYSEQVSEPIFSNSRLQKTLTHGYFPMLKVLSSQKEGHAIMERWRIFTTLYHLTELRNRDDLIIIFLTNLDYRLEGHTRIIFSKALNTGQQAVRLTATKHLAALINSESANDNLNHWAISLLIFQLYDPCLEVCKTAVKVLNEVCARNENLLAQVVQLQPSLAHLGEIGSPLLLRFLATTVGFHYLSEINFIEHELDNWYHHRNIDYVDLLEQNFFLSFVSNLKIIDKKNNEPDENILPLHFYGELVKSPQGCEVLESSGHFESFMGTLVEFYDKPLGNEAIRQLKSALWAIGNIGKTDQGITFLINHDTIPLIVKYAENSLIPTVRGTAYFVLGLISRTSKGVEILESLHWYSLMSLMGTSQGICIPRHAGQVLSTPRRNVEFVNERVPTPEFSSLLSSLTNSEREVIRLVSNLSNHVLTNESARQLTKIRSKNAKVFSSKRLVKACMTILGKFHYRVQIQQFVFELFPYSVLLSSSTSQDLNESPSRPNNLSISA
B4: GFP-tagged Sin1 (TORC2 regulatory subunit) (protein, UniProt Q9P7Y9 1-665)
chain: MELTREKVLLLTFLRMQYSHILPDSIENRVISTEAPEWELDKSLQDLLIHDYDYSKTSFSSSPPIVANDTVSNVRKPSDTKQVNGAGGQVNHSRAEDSDYATSDLSESSDVGDDDNSCIFSFSKVPMQKDVASIKEEERLDPKISTLNNIDAIANLKLTNMVESSQAVNLTSSKQSSINQQSSVSTDYDDLRSISEESFHLSQGEIPLTFPMNSSLTDTEADAVVAVDALFPGKQRGTHNTVNKARSVSNAKAPTSALRALLEHKENSSQNGPLAENFATFSGHAESNALRLNIYFPSSESPSKPLFVELRKNVLVSEAIGYILLQYVNQQLVPPIEDEAQNPNYWNLRIVEDDGELDEDFPALDRVGPLSKFGFDAFALVKATPAQIKENQAAYPFKSKHPTSIPEANNKTHIRHTSSTSSQSQKQAQDVKDTLNTSHVVQVRLPPYGDNARFCNIEISKTTRLAMVLNQVCWMKQLERFKYTLRVAGSDTVLPLDKTFSSLDGNPTLELVKKKVRDKKGSTQQLPTSSPQNSVYGSIKKDAQSSTYNATDIMSSNTYQEFLVWKRQPVSFMGRHERLLAIDGEYVHIMPSESKNIFETPKTSSIHAGSIILCKQSKKSPCNFKMIVSKNRETKRYDFEVLSALEAAIIVSRIRALMNTVKKIN
B5: GFP-tagged Bit61 (TORC2 regulatory subunit) (protein, UniProt O74547 1-422)
chain: MVGRGSFSSTSSASSINWIPKNTKTSIESVSNTISLSENGQNQDLETVTTKESNVGDSDTTENIKSPFNGQWPFSRRSSQSSSHPVFEETHWSKHSKRPGKLNVLTPTSPSNVNAEVQSISTKTQLSLLNLSPHKHKKPKDGLDLSALQKTLNGSRNFLRGRRDAGGIFGASIPQSLVTNQIINGFGAASLAFAKLGKVRSPLEGRFNLVPISADETWLIVESEVCSLYSGEALHYSLEDLNGILILHLQALIRDTKMNEFVGHLETLFRKATKCLSDSLSPVPEELFLNRIIETWLFFFSSVLPYVQGVFLPIKTKLFDEQEKTQLPYEVNEFCSTNREKLNVHRLALMTFRDYMVLPIANRIQICIGRAESAENALDNAGEVFARLFQILSLLASVRTNDSKEQEITNLATKVRCLLIAS

What follows are binders tested against FLAG-tagged Tor2 (catalytic subunit of TORC1) (Schizosaccharomyces pombe) (UniProt Q9Y7K2) (assay: co-IP; anti-FLAG immunoprecipitation from S. pombe extracts, immunoblot with anti-GFP; cells grown vegetatively in EMM2 for 24 h at 26°C, and G0 phase cells after 24 h nitrogen starvation at 26°C; extraction buffer 25 mM HEPES–KOH pH 7.5, 200 mM NaCl, 10% glycerol, 0.1% NP-40, 1 mM PMSF; non-FLAG-tagged strains as control).
With B1 the binding was “binds”.
In the case of B2, the binding is reported as “binds”.
B3 was tested, and the binding was “no binding”.
B4 was tested, and the binding was “no binding”.
With B5 the binding was “no binding”.
